# According to the supplement of paper PMC8728848:
# The list shows a part of the results.
# B1: FedF (Escherichia coli), Q47212 (protein)
# chain: MRLKYILIIPLLLISLSVFASTLQVDKSVSYDWINSSASSAQVTGTLLGTGKTNTTQMPALYTWQHQIYNVNFIPSSSGTLTCQAGTILVWKNGRETQYALECRVSIHHSSGSINESQWGQQSQVGFGTACGNKKCRFTGFEISLRIPPNAQTYPLSSGDLKGSFSLTNKEVNWSASIYVPAIAKSYRLDTSITLPDTVNLKQNQATPVYYTFSAPSVSNTITGIPNQNDMPSSNVKLTIGPIQSKTTALYVQPDATGSWYDLSKSITMTVVKSSMLNFKGINAKPGNVTLSVPIVFEIQ
# What was measured:
# Test in all cases: glycan array binding signal (z-score within array); higher = stronger binding
# Conditions in all cases: glycan notation: IUPAC condensed, linker removed
# [1] = biological target: Gal(b1-4)GlcNAc(b1-2)Man(a1-3)Man(b1-4)GlcNAc(b1-4)GlcNAc
# Procedure, shortened: (§1)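 Glycan array data were curated from 3228 arrays in the Consortium for Functional Glycomics database and kept only where the protein sequence was available. Glycan names were converted to IUPAC-condensed notation, and columns mapping to the same glycan were averaged. The binding signal is a within-array Z-score, averaged across arrays of the same protein sequence at different concentrations or buffers and across linkers. Negative Z-scores can be read as non-binding.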
# [2] = biological target: Gal(b1-4)GlcNAc(b1-2)Man(a1-3)[Gal(b1-4)GlcNAc(b1-2)Man(a1-6)]Man(b1-4)GlcNAc(b1-4)GlcNAc
# Procedure, shortened: as §1
# [3] = biological target: Gal(b1-4)GlcNAc(b1-2)Man(a1-3)[Gal(b1-4)GlcNAc(b1-2)Man(a1-6)]Man(b1-4)GlcNAc(b1-4)[Fuc(a1-6)]GlcNAc
# Procedure, shortened: as §1
# [4] = biological target: Gal(b1-4)GlcNAc(b1-2)Man(a1-3)[Gal(b1-4)GlcNAc(b1-2)][GlcNAc(b1-4)]Man(b1-4)GlcNAc(b1-4)GlcNAc
# Procedure, shortened: as §1
# [5] = biological target: Gal(b1-4)GlcNAc(b1-2)Man(a1-3)[GlcNAc(b1-2)Man(a1-6)]Man(b1-4)GlcNAc(b1-4)GlcNAc
# Procedure, shortened: as §1
# [6] = biological target: Gal(b1-4)GlcNAc(b1-2)Man(a1-3)[Man(a1-6)]Man(b1-4)GlcNAc(b1-4)GlcNAc
# Procedure, shortened: as §1
# [7] = biological target: Gal(b1-4)GlcNAc(b1-2)Man(a1-6)Man(b1-4)GlcNAc(b1-4)GlcNAc
# Procedure, shortened: as §1
# [8] = biological target: Gal(b1-4)GlcNAc(b1-2)Man(a1-6)[GlcNAc(b1-2)Man(a1-3)]Man(b1-4)GlcNAc(b1-4)GlcNAc
# Procedure, shortened: as §1
# [9] = biological target: Gal(b1-4)GlcNAc(b1-2)Man(a1-6)[Man(a1-3)]Man(b1-4)GlcNAc(b1-4)GlcNAc
# Procedure, shortened: as §1
# [10] = biological target: Gal(b1-4)GlcNAc(b1-2)[Gal(b1-4)GlcNAc(b1-4)]Man(a1-3)[Gal(b1-4)GlcNAc(b1-2)Man(a1-6)]Man(b1-4)GlcNAc(b1-4)GlcNAc
# Procedure, shortened: as §1
# [11] = biological target: Gal(b1-4)GlcNAc(b1-2)[Gal(b1-4)GlcNAc(b1-4)]Man(a1-3)[Gal(b1-4)GlcNAc(b1-2)[Gal(b1-4)GlcNAc(b1-6)]Man(a1-6)]Man(b1-4)GlcNAc(b1-4)GlcNAc
# Procedure, shortened: as §1
# [12] = biological target: Gal(b1-4)GlcNAc(b1-2)[Gal(b1-4)GlcNAc(b1-4)]Man(a1-3)[GlcNAc(b1-4)][Gal(b1-4)GlcNAc(b1-2)Man(a1-6)]Man(b1-4)GlcNAc(b1-4)GlcNAc
# Procedure, shortened: as §1
# [13] = biological target: Gal(b1-4)GlcNAc(b1-2)[Gal(b1-4)GlcNAc(b1-4)]Man(a1-3)[GlcNAc(b1-4)][Gal(b1-4)GlcNAc(b1-2)[Gal(b1-4)GlcNAc(b1-6)]Man(a1-6)]Man(b1-4)GlcNAc(b1-4)GlcNAc
# Procedure, shortened: as §1
# [14] = biological target: Gal(b1-4)GlcNAc(b1-2)[Gal(b1-4)GlcNAc(b1-6)]Man(a1-6)[Gal(b1-4)GlcNAc(b1-2)Man(a1-3)]Man(b1-4)GlcNAc(b1-4)GlcNAc
# Procedure, shortened: as §1
# [15] = biological target: Gal(b1-4)GlcNAc(b1-2)[Gal(b1-4)GlcNAc(b1-6)]Man(a1-6)[GlcNAc(b1-4)][Gal(b1-4)GlcNAc(b1-2)Man(a1-3)]Man(b1-4)GlcNAc(b1-4)GlcNAc
# Procedure, shortened: as §1
# [16] = biological target: Gal(b1-4)GlcNAc(b1-3)Gal(b1-3)GlcNAc
# Procedure, shortened: as §1
# [17] = biological target: Gal(b1-4)GlcNAc(b1-3)Gal(b1-4)Glc
# Procedure, shortened: as §1
# [18] = biological target: Gal(b1-4)GlcNAc(b1-3)Gal(b1-4)GlcNAc
# Procedure, shortened: as §1
# [19] = biological target: Gal(b1-4)GlcNAc(b1-3)Gal(b1-4)GlcNAc(b1-3)Gal(b1-4)GlcNAc
# Procedure, shortened: as §1
# [20] = biological target: Gal(b1-4)GlcNAc(b1-3)Gal(b1-4)[Fuc(a1-3)GlcNAc(b1-6)]Gal(b1-4)Glc
# Procedure, shortened: as §1
# [21] = biological target: Gal(b1-4)GlcNAc(b1-3)Gal(b1-4)[Fuc(a1-3)]GlcNAc(b1-3)Gal(b1-4)[Fuc(a1-3)]GlcNAc
# Procedure, shortened: as §1
# [22] = biological target: Gal(b1-4)GlcNAc(b1-3)GalNAc
# Procedure, shortened: as §1
# [23] = biological target: Gal(b1-4)GlcNAc(b1-3)[Gal(b1-4)GlcNAc(b1-6)]Gal(b1-4)GlcNAc
# Procedure, shortened: as §1
# [24] = biological target: Gal(b1-4)GlcNAc(b1-3)[Gal(b1-4)GlcNAc(b1-6)]GalNAc
# Procedure, shortened: as §1
# [25] = biological target: Gal(b1-4)GlcNAc(b1-3)[GlcNAc(b1-6)]Gal(b1-4)GlcNAc
# Procedure, shortened: as §1
# [26] = biological target: Gal(b1-4)GlcNAc(b1-6)Gal(b1-4)GlcNAc
# Procedure, shortened: as §1
# [27] = biological target: Gal(b1-4)GlcNAc(b1-6)Gal(b1-4)GlcNAc(b1-6)GalNAc
# Procedure, shortened: as §1
# [28] = biological target: Gal(b1-4)GlcNAc(b1-6)GalNAc
# Procedure, shortened: as §1
# [29] = biological target: Gal(b1-4)GlcNAc(b1-6)[Gal(b1-3)]GalNAc
# Procedure, shortened: as §1
# [30] = biological target: Gal(b1-6)Gal
# Procedure, shortened: as §1
# [31] = biological target: Gal3S(b1-3)GalNAc
# Procedure, shortened: as §1
# [32] = biological target: Gal3S(b1-3)GlcNAc
# Procedure, shortened: as §1
# [33] = biological target: Gal3S(b1-3)[Fuc(a1-4)]GlcNAc
# Procedure, shortened: as §1
# [34] = biological target: Gal3S(b1-4)Glc
# Procedure, shortened: as §1
# [35] = biological target: Gal3S(b1-4)Glc6S
# Procedure, shortened: as §1
# [36] = biological target: Gal3S(b1-4)GlcNAc
# Procedure, shortened: as §1
# [37] = biological target: Gal3S(b1-4)GlcNAc6S
# Procedure, shortened: as §1
binder,measurement,setting,value
B1,glycan array binding signal (z-score),[1],0.061
same,glycan array binding signal (z-score),[2],-0.353
same,glycan array binding signal (z-score),[3],0.052
same,glycan array binding signal (z-score),[4],-0.163
same,glycan array binding signal (z-score),[5],-0.146
same,glycan array binding signal (z-score),[6],0.126
same,glycan array binding signal (z-score),[7],0.184
same,glycan array binding signal (z-score),[8],-0.17
same,glycan array binding signal (z-score),[9],-0.136
same,glycan array binding signal (z-score),[10],-0.154
same,glycan array binding signal (z-score),[11],-0.12
same,glycan array binding signal (z-score),[12],-0.185
same,glycan array binding signal (z-score),[13],-0.179
same,glycan array binding signal (z-score),[14],-0.145
same,glycan array binding signal (z-score),[15],-0.158
same,glycan array binding signal (z-score),[16],-0.106
same,glycan array binding signal (z-score),[17],-0.369
same,glycan array binding signal (z-score),[18],-0.452
same,glycan array binding signal (z-score),[19],-0.258
same,glycan array binding signal (z-score),[20],-0.17
same,glycan array binding signal (z-score),[21],-0.114
same,glycan array binding signal (z-score),[22],-0.31
same,glycan array binding signal (z-score),[23],-0.091
same,glycan array binding signal (z-score),[24],-0.249
same,glycan array binding signal (z-score),[25],-0.065
same,glycan array binding signal (z-score),[26],-0.182
same,glycan array binding signal (z-score),[27],-0.413
same,glycan array binding signal (z-score),[28],-0.168
same,glycan array binding signal (z-score),[29],-0.225
same,glycan array binding signal (z-score),[30],-0.213
same,glycan array binding signal (z-score),[31],-0.186
same,glycan array binding signal (z-score),[32],0.263
same,glycan array binding signal (z-score),[33],0.257
same,glycan array binding signal (z-score),[34],0.692
same,glycan array binding signal (z-score),[35],1.04
same,glycan array binding signal (z-score),[36],0.14
same,glycan array binding signal (z-score),[37],0.729
